Assay results taken from PubChem BioAssay AID504339 (National Center for Advancing Translational Sciences (NCATS), 2011).
The campaign covered roughly 390,000 compounds. About 17,000 (4.4%) were called active. Inconclusive means that the source gave no clear call. Such entries were picked first, then a sample of the others. Calls come from the whole dose curve; as a rule, active = well fitted inhibition curve with a large enough effect; inconclusive = small, poorly fitted or top-dose-only effect; inactive = no such curve, though single readings can be large or run the other way. Potencies of inconclusive entries are doubtful fits and often do not repeat.

Each compound was assayed against Lysine-specific demethylase 4A (Homo sapiens) (UniProt O75164) (assay: qHTS Assay for Inhibitors of JMJD2A-Tudor Domain). Conditions: AlphaScreen JMJD2A-Tudor / H3K4me3 peptide binding; activity change, negative = inhibition: at 114 µM (top of the series).
% is set by controls: 0 for no effect and ±100 for the full control effect; potency is the fitted concentration of half-maximal effect; tags give direction and shape of the fitted curve.
Note: nearly all actives have a fitted effect of over 50% in size.

Chain of UniProt O75164 (O75164 whole entry, looked up, the tested form may be a part): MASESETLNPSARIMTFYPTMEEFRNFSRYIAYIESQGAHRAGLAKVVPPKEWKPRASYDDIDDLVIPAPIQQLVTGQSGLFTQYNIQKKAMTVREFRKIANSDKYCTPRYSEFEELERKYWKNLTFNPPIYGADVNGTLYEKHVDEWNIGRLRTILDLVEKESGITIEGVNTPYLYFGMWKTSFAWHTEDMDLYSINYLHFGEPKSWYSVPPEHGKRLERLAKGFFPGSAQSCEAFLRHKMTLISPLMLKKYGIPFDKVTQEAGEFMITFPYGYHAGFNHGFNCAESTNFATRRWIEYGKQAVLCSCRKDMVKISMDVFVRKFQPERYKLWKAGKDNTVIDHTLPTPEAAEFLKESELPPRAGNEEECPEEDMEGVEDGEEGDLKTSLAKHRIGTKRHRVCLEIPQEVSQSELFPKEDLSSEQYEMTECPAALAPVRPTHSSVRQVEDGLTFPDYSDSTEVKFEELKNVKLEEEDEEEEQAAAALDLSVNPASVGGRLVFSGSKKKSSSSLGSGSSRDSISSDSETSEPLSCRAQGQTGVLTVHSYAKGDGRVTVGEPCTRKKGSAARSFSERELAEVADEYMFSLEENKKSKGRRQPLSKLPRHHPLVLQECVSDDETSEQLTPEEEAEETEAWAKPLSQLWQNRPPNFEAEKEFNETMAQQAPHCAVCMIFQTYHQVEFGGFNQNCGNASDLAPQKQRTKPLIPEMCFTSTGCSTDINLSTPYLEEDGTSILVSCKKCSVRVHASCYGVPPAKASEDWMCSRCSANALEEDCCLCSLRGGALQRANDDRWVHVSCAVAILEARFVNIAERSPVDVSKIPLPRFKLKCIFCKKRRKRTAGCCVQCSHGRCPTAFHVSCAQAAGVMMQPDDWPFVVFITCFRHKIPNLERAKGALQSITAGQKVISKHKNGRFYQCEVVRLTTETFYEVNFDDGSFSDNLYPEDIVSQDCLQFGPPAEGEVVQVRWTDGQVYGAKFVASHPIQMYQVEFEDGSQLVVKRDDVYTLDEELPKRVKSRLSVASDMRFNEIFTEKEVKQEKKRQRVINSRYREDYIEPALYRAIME

Compound	Potency	activity change, negative = inhibition
COc1ccc(-n2nc(C(=O)Nc3ccc(OC)c(OC)c3)c3c4ccccc4n(C)c3c2=O)cc1	inconclusive: 5.62 µM [inhibitor, partial curve]	–
COC(=O)c1[nH]c2cc(OC)ccc2c1N	inconclusive: 17.8 µM [inhibitor, single point]	–
CC(C)(CO)NC12CC3CC(CC(C3)C1)C2	inconclusive: 39.8 µM [inhibitor, single point]	–
CC(C)=C1C2CCC1C(C(=O)Nc1sc(C)c(-c3ccc(C(C)C)cc3)c1C(N)=O)C2C(=O)O (configuration not stated)	–	inactive: -31.4%
Fc1ccc(CN2CCN(c3ncnc4scc(-c5ccc(F)cc5)c34)CC2)cc1	inconclusive: 12.6 µM [inhibitor, full curve, poor fit]	–
Nc1nnnn1CC(=O)N/N=C/c1cc([N+](=O)[O-])ccc1O	active: 20 µM	–
OC(COC1CCCCC1)CN1CCCCC1 (configuration not stated)	active: 79.4 µM	–
N=c1n(CCN2CCCCC2)c2ccccc2n1CC(O)c1ccc(Cl)c(Cl)c1 (configuration not stated)	inconclusive: 44.7 µM [inhibitor, partial curve]	–
CCC(C(=O)NC1CCCC1)N(C(=O)c1snc(C(N)=O)c1N)c1ccc(C)cc1C (configuration not stated)	–	inactive: -3.7% [at 57.1 µM]
CCCC(NS(=O)(=O)c1ccc(Br)cc1)C(=O)O (configuration not stated)	inconclusive: 17.8 µM [inhibitor, partial curve]	–
O=C(NCc1ccco1)c1cccc(Nc2nc3ccc(Br)cc3[nH]2)c1	inconclusive: 56.2 µM [inhibitor, partial curve]	–
CCCCCn1c(N)c(-c2nc3ccccc3s2)c2c([N+](=O)[O-])nn(C)c(=O)c21	inconclusive: 6.31 µM [inhibitor, full curve, poor fit]	–
Cc1ccc(CCNC(=O)c2cc3c(s2)-c2ccccc2OC3)cc1	inconclusive: 70.8 µM [inhibitor, partial curve]	–
NC(=O)C1CCN(CC(=O)Nc2ccc3c(c2)OCCO3)CC1	–	inactive: 2.26%
Cc1cccc(NC(c2cccc(F)c2)c2ccc3ccc(C)nc3c2O)n1 (configuration not stated)	inconclusive: 10 µM [inhibitor, full curve]	–
Cc1ccc(NC(=O)c2nc(S(C)(=O)=O)ncc2N(Cc2cccc(F)c2)Cc2ccco2)cc1C	inconclusive: 22.4 µM [inhibitor, full curve, poor fit]	–
CC1=CC(C)(C)n2c(O)c(N=NC(N)=S)c3c(C)ccc1c32	–	inactive: -25.8%
Cc1ccc(C(=O)N2CCc3ccccc32)cc1[N+](=O)[O-]	inconclusive: 20 µM [inhibitor, single point]	–
COc1ccc(N=Cc2nc(-c3ccccc3)oc2OC(C)=O)cc1	–	inactive: -19.6%
Cc1ccc(OCC(=O)NNC(=S)NC(=O)c2ccc(Br)o2)c(C)c1	inconclusive: 50.1 µM [inhibitor, partial curve]	–
Cc1nc2ccc(NC(=O)c3cc([N+](=O)[O-])cc([N+](=O)[O-])c3Cl)cc2s1	active: 56.2 µM	–
CCc1nnc(NC(=O)c2ccc(S(=O)(=O)N3CCc4ccccc4C3)cc2)s1	inconclusive: 25.1 µM [inhibitor, single point]	–
O=C(CC1CCCCC1)N=C1SC2CS(=O)(=O)CC2N1c1ccccc1 (configuration not stated)	–	inactive: -19.9%
COC(=O)c1ccc(NCc2cc(O)ccc2O)cc1	active: 5.62 µM	–

Compound	Potency	activity change, negative = inhibition
COc1ccc(COc2cc(-c3cccc(OC)c3)nc3ccc(N)cc23)cc1	inconclusive: 39.8 µM [inhibitor, full curve]	–
O=C(O)C1CC(=O)N(c2ccc(F)cc2)C1 (configuration not stated)	active: 50.1 µM	–
COc1ccc(OC)c(NC(=O)Cn2nc3c(cc2=O)CCCC3)c1	–	inactive: -16%
COc1cc(CNCc2ccccn2)ccc1OCc1ccc(Cl)c(Cl)c1	inconclusive: 0.631 µM [inhibitor, full curve]	–
CCOC(=O)C1=C(COC(=O)/C=C/c2ccco2)NC(=O)NC1C (configuration not stated)	active: 28.2 µM	–
CCOC(=O)C1CCN(C(=O)Cn2cc(C(=O)OC)c3ccccc32)CC1	inconclusive: 79.4 µM [inhibitor, partial curve]	–
COc1ccc(N2CCN(C(=O)C(C)(C)Oc3ccc(Cl)cc3)CC2)cc1	active: 50.1 µM	–
CCOc1ccc(CNC(=O)Cn2nc(C)c3nn(-c4ccc(Cl)cc4)c(C)c3c2=O)cc1	–	inactive: -6.82%
O=C(CSc1ccc(-c2ccco2)nn1)c1ccc(F)cc1	active: 44.7 µM	–
Cc1ccc(C(=O)Nc2ccc(N3CCOCC3)c3nonc23)cc1[N+](=O)[O-]	inconclusive: 70.8 µM [inhibitor, partial curve, poor fit]	–
C#CCOCCOCCOCCNc1nc(N2CCN(C(=O)[C@H](Cc3ccc(O)cc3)n3cc(C(N)CC(C)C)nn3)CC2)nc(N2CCN(C(=O)[C@H](CCC(=O)O)n3cc(C(N)[C@H](C)CC)nn3)CC2)n1 (some centres not stated)	active: 44.7 µM	–
COc1ccccc1C1CCN(C(=S)Nc2ccc(Br)cc2)CC1	inconclusive: 31.6 µM [inhibitor, partial curve, poor fit]	–
C#CCOCCOCCOCCNc1nc(N2CCN(C(=O)Cn3cc(CC(C)O)nn3)CC2)nc(N2CCN(C(=O)[C@H](CCCCN)n3cc(CCCC)nn3)CC2)n1 (some centres not stated)	–	inactive: -10.5%
Cc1ccc(S(=O)(=O)c2c(C)nn(-c3ccccc3)c2OC(=O)c2ccco2)cc1	active: 79.4 µM	–
Nc1cc(OC(=O)c2ccc(F)cc2)nn1S(=O)(=O)c1ccc(F)cc1	inconclusive: 89.1 µM [inhibitor, single point]	–
N/C(=N\OS(=O)(=O)c1ccc(Cl)cc1)c1ccccn1	active: 25.1 µM	–
CC1=CC(c2ccccc2)n2nc(NC(=O)CCCC(=O)O)nc2N1 (configuration not stated)	inconclusive: 56.2 µM [inhibitor, partial curve]	–
Cc1ccccc1C1c2[nH]c3ccccc3c2CCN1CCCn1cccn1 (configuration not stated)	inconclusive: 31.6 µM [inhibitor, partial curve]	–
CC(OC(=O)CCC1CCCCC1)C(=O)Nc1ccc(S(N)(=O)=O)cc1 (configuration not stated)	–	inactive: -15.9%
CC1(c2cccc([N+](=O)[O-])c2)CC(C)(C)N(C(=O)c2ccccc2)c2ccccc21 (configuration not stated)	inconclusive: 50.1 µM [inhibitor, partial curve]	–
CCN(CC)c1ccc(NC(=O)CN2CCN(S(=O)(=O)c3ccc(C(C)C)cc3)CC2)cc1	active: 14.1 µM	–
O=C(Cn1ccc2cc(S(=O)(=O)N3CCCC3)ccc21)NCc1ccc(Cl)cc1	–	inactive: -2.41%
COc1ccccc1OCC(=O)Nc1ccc(C(N)=O)cc1	inconclusive: 100 µM [inhibitor, partial curve]	–
O=[N+]([O-])c1cccnc1N1CCN(c2ccc(F)cc2)CC1	active: 25.1 µM	–

Compound	Potency	activity change, negative = inhibition
CCCCn1c(-c2csc3ccccc23)n[nH]c1=S	inconclusive: 89.1 µM [inhibitor, single point]	–
Nc1cccc(-c2nc3ccc(C(=O)c4ccccc4)cc3[nH]2)c1	inconclusive: 63.1 µM [inhibitor, partial curve]	–
COc1ccc(-n2cc(C(=O)NCCc3ccc(C)cc3)c3ccccc3c2=O)cc1	inconclusive: 22.4 µM [inhibitor, full curve]	–
O=C(CSc1nnc(-c2ccncc2)o1)Nc1nncs1	active: 31.6 µM	–
COC(=O)c1cccc(NC(=O)CN2CCN(c3ccc(OC)cc3)CC2)c1	inconclusive: 79.4 µM [inhibitor, partial curve]	–
COc1ccc2nc(NC(=O)C3=NN(c4ccccc4)C(=O)CC3)sc2c1	inconclusive: 56.2 µM [inhibitor, partial curve]	–
Nc1cc(S(=O)(=O)Nc2ccccc2Cl)ccc1N1CCCCC1	inconclusive: 35.5 µM [inhibitor, partial curve]	–
CC1(C)Cc2c(sc(NC(=O)c3ccccc3Cl)c2C(=O)O)CO1	–	inactive: -5.84%
CCC(=O)Nc1nnc(-c2ccco2)o1	active: 44.7 µM	–
COc1ccc(SN=C2C(C)=CC(=O)C=C2C)cc1	inconclusive: 4.47 µM [inhibitor, full curve]	–
FC(F)(F)c1cccc(CN2CCSCC2)c1	active: 22.4 µM	–
COc1ccc(C(=O)CCC(=O)Nc2ccc(N3CCCCC3)cc2)cc1OC	inconclusive: 35.5 µM [inhibitor, partial curve]	–
O=c1cc(-c2ccccc2Cl)oc2cc(O)cc(O)c12	–	inactive: -18.3%
COc1ccccc1NC(=S)N(CCCN1CCOCC1)Cc1cn(C)c2ccccc12	inconclusive: 56.2 µM [inhibitor, partial curve]	–
O=S(=O)(c1ccc(SCc2ccccc2)nc1)N1CCCC1	–	inactive: 113%
Cc1ccc(C(=O)Nc2nc3ccccc3c(=O)s2)cc1	active: 89.1 µM	–
N/C(=N\OC(=O)Cc1ccccc1[N+](=O)[O-])c1ccccn1	inconclusive: 39.8 µM [inhibitor, single point]	–
Cc1ccc2[nH]cc(CCCN3C(=O)c4ccccc4C3=O)c2c1	active: 22.4 µM	–
O=C(CSCc1cccc(Cl)c1)Nc1ccccc1-c1ccccc1	–	inactive: 81%
Cc1ccc(NC2=CC(=O)C(=O)c3ccccc32)cc1	inconclusive: 28.2 µM [inhibitor, full curve]	–
CCOc1ccc(C(=S)N2CCOCC2)cc1OCC	–	inactive: -10.9%
COc1ccc(N=Cc2cc(Cc3ccccc3Cl)cc([N+](=O)[O-])c2O)cc1OC	inconclusive: 63.1 µM [inhibitor, partial curve]	–
COc1cc(C2C(C(=O)c3ccco3)=C(O)C(=O)N2Cc2cccnc2)cc(OC)c1OC (configuration not stated)	active: 89.1 µM	–
CCc1ccc(CNC(=O)Cc2ccc(NC(=O)C3=C(C)OCCS3)cc2)cc1	inconclusive: 17.8 µM [inhibitor, full curve]	–
